# Measurements as given in the supplement of paper PMC8728848.
# This is one part of the list.
# Key:
# Assay in all cases: glycan array binding signal (z-score within array); higher = stronger binding
# Conditions in all cases: glycan notation: IUPAC condensed, linker removed
# Fuc(a1-3)GlcNAc = target: Fuc(a1-3)GlcNAc
# Method in brief: (§1)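 Glycan array data came from 3228 arrays in the Consortium for Functional Glycomics database, and only arrays with an available protein sequence were kept. Glycan names were put into IUPAC-condensed notation, and columns mapping to the same glycan were averaged. The binding signal is a within-array Z-score, averaged across arrays of one protein sequence run at different concentrations or buffers and across linkers. A negative Z-score can be read as non-binding.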
# [1] = target: Fuc(a1-3)[Gal(b1-4)]Glc6S
# Method in brief: as §1
# [2] = target: Fuc(a1-3)[Gal(b1-4)]GlcNAc
# Method in brief: as §1
# [3] = target: Fuc(a1-3)[Gal(b1-4)]GlcNAc(b1-2)Man
# Method in brief: as §1
# [4] = target: Fuc(a1-3)[Gal(b1-4)]GlcNAc(b1-2)Man(a1-3)[Fuc(a1-3)[Gal(b1-4)]GlcNAc(b1-2)Man(a1-6)]Man(b1-4)GlcNAc(b1-4)GlcNAc
# Method in brief: as §1
# [5] = target: Fuc(a1-3)[Gal(b1-4)]GlcNAc(b1-2)Man(a1-3)[Fuc(a1-3)[Gal(b1-4)]GlcNAc(b1-2)Man(a1-6)]Man(b1-4)GlcNAc(b1-4)[Fuc(a1-6)]GlcNAc
# Method in brief: as §1
# [6] = target: Fuc(a1-3)[Gal(b1-4)]GlcNAc(b1-3)Gal(b1-3)[Fuc(a1-4)]GlcNAc
# Method in brief: as §1
# [7] = target: Fuc(a1-3)[Gal(b1-4)]GlcNAc(b1-3)Gal(b1-4)[Fuc(a1-3)]GlcNAc
# Method in brief: as §1
# [8] = target: Fuc(a1-3)[Gal(b1-4)]GlcNAc(b1-3)Gal(b1-4)[Fuc(a1-3)]GlcNAc(b1-3)Gal(b1-4)[Fuc(a1-3)]GlcNAc
# Method in brief: as §1
# [9] = target: Fuc(a1-3)[Gal(b1-4)]GlcNAc(b1-3)GalNAc
# Method in brief: as §1
# [10] = target: Fuc(a1-3)[Gal(b1-4)]GlcNAc(b1-6)GalNAc
# Method in brief: as §1
# [11] = target: Fuc(a1-3)[Gal(b1-4)]GlcNAc(b1-6)[Gal(b1-3)GlcNAc(b1-3)]Gal(b1-4)Glc
# Method in brief: as §1
# [12] = target: Fuc(a1-3)[Gal(b1-4)]GlcNAc6S
# Method in brief: as §1
# [13] = target: Fuc(a1-3)[Gal3S(b1-4)]Glc
# Method in brief: as §1
# [14] = target: Fuc(a1-3)[Gal3S(b1-4)]GlcNAc
# Method in brief: as §1
# [15] = target: Fuc(a1-3)[Gal3S(b1-4)]GlcNAc6S
# Method in brief: as §1
# [16] = target: Fuc(a1-3)[GalNAc(b1-4)]GlcNAc
# Method in brief: as §1
# [17] = target: Fuc(a1-3)[GalNAc(b1-4)]GlcNAc6S
# Method in brief: as §1
# Fuc(a1-4)GlcNAc = target: Fuc(a1-4)GlcNAc
# Method in brief: as §1
# Fuc(b1-3)GlcNAc = target: Fuc(b1-3)GlcNAc
# Method in brief: as §1
# Gal(a1-2)Gal = target: Gal(a1-2)Gal
# Method in brief: as §1
# Gal(a1-3)Gal = target: Gal(a1-3)Gal
# Method in brief: as §1
# Gal(a1-3)Gal(b1-3)GlcNAc = target: Gal(a1-3)Gal(b1-3)GlcNAc
# Method in brief: as §1
# [18] = target: Gal(a1-3)Gal(b1-3)GlcNAc(b1-2)Man
# Method in brief: as §1
# [19] = target: Gal(a1-3)Gal(b1-3)GlcNAc(b1-2)Man(a1-3)[Gal(a1-3)Gal(b1-3)GlcNAc(b1-2)Man(a1-6)]Man(b1-4)GlcNAc(b1-4)GlcNAc
# Method in brief: as §1
# [20] = target: Gal(a1-3)Gal(b1-3)GlcNAc(b1-3)GalNAc
# Method in brief: as §1
# [21] = target: Gal(a1-3)Gal(b1-3)GlcNAc(b1-6)GalNAc
# Method in brief: as §1
# [22] = target: Gal(a1-3)Gal(b1-3)[Fuc(a1-4)]GlcNAc(b1-2)Man(a1-3)[Gal(a1-3)Gal(b1-3)[Fuc(a1-4)]GlcNAc(b1-2)Man(a1-6)]Man(b1-4)GlcNAc(b1-4)GlcNAc
# Method in brief: as §1
# Gal(a1-3)Gal(b1-4)Glc = target: Gal(a1-3)Gal(b1-4)Glc
# Method in brief: as §1
# Gal(a1-3)Gal(b1-4)GlcNAc = target: Gal(a1-3)Gal(b1-4)GlcNAc
# Method in brief: as §1
binder,measurement,setting,value
Cohesin-hLangerin (Homo sapiens) (protein) LDDLDAVRIKVDTVNAKPGDTVRIPVRFSGIPSKGIANCDFVYSYDPNVLEIIEIEPGDIIVDPNPDKSFDTAVYPDRKIIVFLFAEDSGTGAYAITKDGVFATIVAKVKEGAPNGLSVIKFVEVGGFANNDLVEQKTQFFDGGANVGDTTEPATPTTPVTTPTTTDDLDAASYPRFMGTISDVKTNVQLLKGRVDNISTLDSEIKKNSDGMEAAGVQIQMVNESLGYVRSQFLKLKTSVEKANAQIQILTRSWEEVSTLNAQIPELKSDLEKASALNTKIRALQGSLENMSKLLKRQNDILQVVSQGWKYFKGNFYYFSLIPKTWYSAEQFCVSRNSHLTSVTSESEQEFLYKTAGGLIYWIGLTKAGMEGDWSWVDDTPFNKVQSARFWIPGEPNNAGNNEHCGNIKAPSLQAWNDAPCDKTFLFICKRPYVPSEPHHHHHH,glycan array binding signal (z-score),Fuc(a1-3)GlcNAc,-0.357
same,glycan array binding signal (z-score),[1],-0.346
same,glycan array binding signal (z-score),[2],-0.181
same,glycan array binding signal (z-score),[3],-0.404
same,glycan array binding signal (z-score),[4],-0.375
same,glycan array binding signal (z-score),[5],-0.411
same,glycan array binding signal (z-score),[6],-0.428
same,glycan array binding signal (z-score),[7],-0.026
same,glycan array binding signal (z-score),[8],-0.424
same,glycan array binding signal (z-score),[9],-0.398
same,glycan array binding signal (z-score),[10],-0.413
same,glycan array binding signal (z-score),[11],-0.424
same,glycan array binding signal (z-score),[12],-0.459
same,glycan array binding signal (z-score),[13],-0.365
same,glycan array binding signal (z-score),[14],-0.259
same,glycan array binding signal (z-score),[15],-0.403
same,glycan array binding signal (z-score),[16],-0.224
same,glycan array binding signal (z-score),[17],-0.405
same,glycan array binding signal (z-score),Fuc(a1-4)GlcNAc,0.16
same,glycan array binding signal (z-score),Fuc(b1-3)GlcNAc,-0.36
same,glycan array binding signal (z-score),Gal(a1-2)Gal,-0.188
same,glycan array binding signal (z-score),Gal(a1-3)Gal,-0.38
same,glycan array binding signal (z-score),Gal(a1-3)Gal(b1-3)GlcNAc,1.14
same,glycan array binding signal (z-score),[18],-0.432
same,glycan array binding signal (z-score),[19],-0.295
same,glycan array binding signal (z-score),[20],-0.351
same,glycan array binding signal (z-score),[21],-0.254
same,glycan array binding signal (z-score),[22],2.81
same,glycan array binding signal (z-score),Gal(a1-3)Gal(b1-4)Glc,-0.319
same,glycan array binding signal (z-score),Gal(a1-3)Gal(b1-4)GlcNAc,-0.414
